Results: a collection of fitness landscapes (doi:10.1126/science.1257360)
The list shows a part of the results.

B1: PhoQ; a variant is named by its letters at X, in order, P23837 (parent)
chain: MKKLLRLFFPLSLRVRFLLATAAVVLVLSLAYGMVALIGYSVSFDKTTFRLLRGESNLFYTLAKWENNKLHVELPENIDKQSPTMTLIYDENGQLLWAQRDVPWLMKMIQPDWLKSNGFHEIEADVNDTSLLLSGDHSIQQQLQEVREDDDDAEMTHSVAVNVYPATSRMPKLTIVVVDTIPVELKSSYMVWSWFIYVLSANLLLVIPLLWVAAWWSLRPIEALAKEVRELEEHNRELLNPATTRELTSLVRNLNRLLKSERERYDKYRTTLTDLTHSLKTPLXXLQXXLRSLRSEKMSVSDAEPVMLEQISRISQQIGYYLHRASMRGGTLLSRELHPVAPLLDNLTSALNKVYQRKGVNISLDISPEISFVGEQNDFVEVMGNVLDNACKYCLEFVEISARQTDEHLYIVVEDDGPGIPLSKREVIFDRGQRVDTLRPGQGVGLAVAREITEQYEGKIVAGESMLGGARMEVIFGRQHSAPKDE

Variants of: B1
Assay: enrichment ratio after two sorts for PhoP signalling (ratio (wild type AVST 3.29)); higher = more functional
Details: with PhoP (E. coli)

Variant | enrichment ratio
TIAY | ≤ 0.25
KICF | ≤ 0.25
NGRC | ≤ 0.25
NQGQ | ≤ 0.25
FGLM | 5.23
DSVN | ≤ 0.25
SCRD | ≤ 0.25
WPVR | ≤ 0.25
DCMN | ≤ 0.25
YYCQ | ≤ 0.25
EADA | ≤ 0.25
DHYG | ≤ 0.25
MTHQ | 1.88
PFFP | ≤ 0.25
ERNI | 1.92
WPPM | ≤ 0.25
LIRR | ≤ 0.25
WQVA | ≤ 0.25
FHRR | ≤ 0.25
QLNL | ≤ 0.25
KGME | ≤ 0.25
ERPS | ≤ 0.25
SFNI | ≤ 0.25
RRAI | ≤ 0.25
MHPP | ≤ 0.25

Variant | enrichment ratio
LFYY | ≤ 0.25
LFKK | ≤ 0.25
MMDF | ≤ 0.25
NRAK | ≤ 0.25
DWER | ≤ 0.25
RGHK | ≤ 0.25
SSVE | 6.96
VNML | 14.6
TRVD | ≤ 0.25
APNG | ≤ 0.25
WKRC | ≤ 0.25
CLCS | ≤ 0.25
LHNE | ≤ 0.25
HFLT | ≤ 0.25
ERTC | ≤ 0.25
YQCL | ≤ 0.25
VWKI | ≤ 0.25
AQGN | 6.95
GTME | ≤ 0.25
LCCR | ≤ 0.25
WANG | ≤ 0.25
CAFP | ≤ 0.25
SRVM | 9.78
EFAT | ≤ 0.25
ANPP | ≤ 0.25

Variant | enrichment ratio
GQGD | ≤ 0.25
HTWP | ≤ 0.25
FHAC | ≤ 0.25
FPCL | ≤ 0.25
WSSM | ≤ 0.25
SEFS | 7.06
DFAG | ≤ 0.25
RPYQ | ≤ 0.25
VHFN | ≤ 0.25
KAVP | ≤ 0.25
QIKL | ≤ 0.25
PEVQ | ≤ 0.25
RYWT | ≤ 0.25
ISPE | ≤ 0.25
EEFD | ≤ 0.25
LDWC | ≤ 0.25
AYCS | ≤ 0.25
PNGD | ≤ 0.25
ANPN | ≤ 0.25
IMCW | ≤ 0.25
ATFL | ≤ 0.25
FVTW | ≤ 0.25
VDKD | ≤ 0.25
AQVF | 7.77
VDKK | ≤ 0.25

Variant | enrichment ratio
WHTI | ≤ 0.25
VTSN | ≤ 0.25
HLVM | ≤ 0.25
NWTH | ≤ 0.25
RALD | ≤ 0.25
SRLF | ≤ 0.25
WKIV | ≤ 0.25
YTMD | ≤ 0.25
NASC | ≤ 0.25
RAHS | ≤ 0.25
LFEG | ≤ 0.25
QTSP | ≤ 0.25
SPPE | ≤ 0.25
KQKT | ≤ 0.25
NYHM | ≤ 0.25
WIWI | ≤ 0.25
RARQ | ≤ 0.25
GMFD | ≤ 0.25
ADWP | ≤ 0.25
NYFK | ≤ 0.25
KPAV | ≤ 0.25
DRND | ≤ 0.25
PGYT | ≤ 0.25
NQVC | ≤ 0.25
NGKA | ≤ 0.25

Variant | enrichment ratio
DNRQ | ≤ 0.25
NNYV | ≤ 0.25
SMDK | ≤ 0.25
PFGE | ≤ 0.25
IHEC | ≤ 0.25
HPFC | ≤ 0.25
YFKW | ≤ 0.25
HYNL | ≤ 0.25
MLNT | ≤ 0.25
EYAN | ≤ 0.25
SATG | 9.7
AMDI | ≤ 0.25
WAKH | ≤ 0.25
MFGG | ≤ 0.25
MDHI | ≤ 0.25
LYNG | ≤ 0.25
SVIV | 0.252
DLFE | ≤ 0.25
AHMY | 0.614
DKKA | ≤ 0.25
WEIQ | ≤ 0.25
DNCT | ≤ 0.25
RPYA | ≤ 0.25
WDFF | ≤ 0.25
VQDP | ≤ 0.25

Variant | enrichment ratio
RTRH | ≤ 0.25
VIYI | ≤ 0.25
DIGW | ≤ 0.25
MGRR | ≤ 0.25
VKVH | ≤ 0.25
NTMK | ≤ 0.25
NGWD | ≤ 0.25
VFSH | ≤ 0.25
AESN | 11
RVES | ≤ 0.25
ESQI | ≤ 0.25
HLFC | ≤ 0.25
IPNF | ≤ 0.25
TGEG | ≤ 0.25
WPKY | ≤ 0.25
IAQG | ≤ 0.25
IIRK | ≤ 0.25
WVWY | ≤ 0.25
EAHC | ≤ 0.25
LGAI | ≤ 0.25
DLWF | ≤ 0.25
NDHK | ≤ 0.25
KPYP | ≤ 0.25
IRIE | ≤ 0.25
DHWI | ≤ 0.25

Variant | enrichment ratio
DVQA | ≤ 0.25
LIDG | ≤ 0.25
IWNA | ≤ 0.25
VHYC | ≤ 0.25
FNGC | ≤ 0.25
WQRI | ≤ 0.25
FNMY | ≤ 0.25
EMGW | ≤ 0.25
WDGY | ≤ 0.25
MGEY | ≤ 0.25
IFYC | ≤ 0.25
YYII | ≤ 0.25
MKNM | ≤ 0.25
RLRD | ≤ 0.25
KGTN | ≤ 0.25
FRNM | ≤ 0.25
GMCG | 7.32
RNVH | ≤ 0.25
TFYI | ≤ 0.25
SHIT | ≤ 0.25
KHPY | ≤ 0.25
TRYW | ≤ 0.25
DHKR | ≤ 0.25
PRSQ | ≤ 0.25
EKPD | ≤ 0.25

Variant | enrichment ratio
YCPL | ≤ 0.25
ARNF | ≤ 0.25
ENWV | ≤ 0.25
AKFL | ≤ 0.25
PELR | ≤ 0.25
MVFW | ≤ 0.25
TAYK | ≤ 0.25
HWYR | ≤ 0.25
ICHW | ≤ 0.25
LKLD | ≤ 0.25
KQYS | ≤ 0.25
LSTV | ≤ 0.25
MLSP | ≤ 0.25
SFFC | ≤ 0.25
VIKP | ≤ 0.25
YLNN | ≤ 0.25
AGIM | 11.8
MTGC | 7.29
HNLE | ≤ 0.25
FNNM | ≤ 0.25
